{"source": "PubChem BioAssay AID1194", "about": "(EPA DSSTox, 2008)", "note": "Not every entry of the source has a single result; some have several. This list holds those alone.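 Rule for the calls: active = chemicals rated mutagenic or weakly mutagenic in the Salmonella bacterial test by one literature review, or positive overall by another; inconclusive = no clear call, values can overlap the other calls; inactive = the rest.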 An entry can have further records. Results that share an entry are repeated measurements in other runs, samples, wells, individuals or studies. What stands in brackets tells the records apart. The letters are not those of the source and start again with each entry.", "data": [{"tested_on": "Salmonella typhimurium Ames mutagenicity, literature compiled", "assay": "DSSTox (CPDBAS) Carcinogenic Potency Database Salmonella Mutagenicity", "text": "The Carcinogenic Potency Database (CPDB) is a unique and widely used international resource of the results of over 6500 chronic, long-term animal cancer tests on over 1500 chemical substances. The CPDB provides easy access to the bioassay literature, with qualitative and quantitative analyses of both positive and negative experiments that have been published over the past 50 years in the general literature and by the National Cancer Institute/National Toxicology Program. The CPDB standardizes the diverse literature of cancer bioassays that vary widely in protocol, histopathological examination and nomenclature, and in the published author's choices of what information to provide in their papers. Results are reported in the CPDB for tests in rats, mice, hamsters, dogs, and nonhuman primates, and are based on the most positive result among all experiments for each sex-species. The DSSTox CPDBAS (all species) file incorporates data from the CPDB Summary Tables for the full list of over 1500 chemical substances tested in at least one species.\nA chemical is classified within the CPDB as mutagenic, i.e. \"active\", in the Salmonella assay if it was evaluated overall as either \"mutagenic\" or \"weakly mutagenic\" by Zeiger [Zeiger, E. (1997) Genotoxicity Database. In: Gold and Zeiger, Eds. Handbook of Carcinogenic Potency and Genotoxicity Databases. Boca Raton, FL: CRC Press, pp. 687-729. http://potency.berkeley.edu/CRCbook.html] or as overall \"positive\" by the EPA Gene-Tox Program [Kier et al. (1986) Mutat. Res. 168: 69-240].", "values": [{"smiles": "Oc1c(Cl)c(Cl)c(Cl)c(Cl)c1Cl", "outcome": "inactive; active [sample A] and inactive [sample B] and inactive [sample C]"}, {"smiles": "CC(=O)OC1CC(C)OC(C)O1", "note": "(centres undefined)", "outcome": "active [sample A] and active; inactive [sample B]"}, {"smiles": "C=C(C)CCl", "outcome": "inactive; active [sample A] and active [sample B]"}, {"smiles": "CCCCOCCOCCOCc1cc2c(cc1CCC)OCO2", "outcome": "inactive [sample A] and inactive; active [sample B]"}]}]}
